Measured values published in paper PMC4336329 (PLoS ONE, 2015).
Out of some 310,000 compounds screened, about 14,000 (4.5%) showed an effect of 50% or more. The effect is printed as a negative number. This is one part of the list.

The compounds below were run against human ether-à-go-go-related gene (hERG) potassium channel (human, UniProt Q12809) (assay: primary screen, population patch clamp on CHO cells stably expressing hERG).
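Note: peak tail current of the secondary pulse compared with the same well before compound.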

Chain of human ether-à-go-go-related gene (hERG) potassium channel (Q12809 whole entry, looked up): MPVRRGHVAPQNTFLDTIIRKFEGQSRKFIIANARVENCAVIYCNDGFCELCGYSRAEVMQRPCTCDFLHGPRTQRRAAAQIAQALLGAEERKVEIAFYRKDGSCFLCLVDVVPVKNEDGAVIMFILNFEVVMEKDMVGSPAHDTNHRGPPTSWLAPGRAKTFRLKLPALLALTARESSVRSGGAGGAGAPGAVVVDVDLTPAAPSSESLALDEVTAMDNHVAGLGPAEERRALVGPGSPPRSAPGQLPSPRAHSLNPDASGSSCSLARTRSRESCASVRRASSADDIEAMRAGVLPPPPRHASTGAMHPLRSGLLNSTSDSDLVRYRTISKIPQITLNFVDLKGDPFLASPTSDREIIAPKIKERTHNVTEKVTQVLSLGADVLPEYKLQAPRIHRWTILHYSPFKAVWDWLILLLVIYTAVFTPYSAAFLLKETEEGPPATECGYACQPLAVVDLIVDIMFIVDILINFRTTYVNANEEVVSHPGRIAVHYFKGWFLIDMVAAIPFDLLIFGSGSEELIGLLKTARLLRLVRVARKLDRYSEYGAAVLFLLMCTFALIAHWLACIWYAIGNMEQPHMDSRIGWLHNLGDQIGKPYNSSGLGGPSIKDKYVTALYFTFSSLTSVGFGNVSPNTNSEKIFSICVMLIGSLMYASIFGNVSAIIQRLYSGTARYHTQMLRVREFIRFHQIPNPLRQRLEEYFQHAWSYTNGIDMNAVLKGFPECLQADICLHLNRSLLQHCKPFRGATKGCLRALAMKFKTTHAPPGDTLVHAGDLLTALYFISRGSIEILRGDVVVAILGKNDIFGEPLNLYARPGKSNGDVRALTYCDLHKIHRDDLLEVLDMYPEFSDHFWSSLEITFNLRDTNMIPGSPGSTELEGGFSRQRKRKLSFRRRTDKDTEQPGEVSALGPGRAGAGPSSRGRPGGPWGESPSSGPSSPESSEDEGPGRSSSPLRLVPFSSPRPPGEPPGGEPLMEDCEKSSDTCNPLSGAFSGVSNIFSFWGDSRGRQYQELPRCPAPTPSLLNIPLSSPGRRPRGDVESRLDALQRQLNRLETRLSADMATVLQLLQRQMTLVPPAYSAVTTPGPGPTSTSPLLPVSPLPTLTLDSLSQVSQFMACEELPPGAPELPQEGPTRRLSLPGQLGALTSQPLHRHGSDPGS

First: Cc1onc(-c2c(Cl)cccc2Cl)c1C(=O)NCc1ccc(S(N)(=O)=O)cc1
Second: Cc1ccc2c(C)c(C(=O)NCc3ccc(S(N)(=O)=O)cc3)oc2c1C
The “hERG current change (%, negative = inhibition) at 10uM” value of the first is lower: 5.06% for the first, 17.7% for the second.

Compared with `Cc1ccc(NC(=O)N2CCC(c3ccccc3)C2)cc1C` (stereo not shown), `COc1ccc(C)cc1NC(=O)Cc1c(C(=O)O)n(C)c2ccccc12` is higher in “hERG current change (%, negative = inhibition) at 10uM” value: -16.7% for the first, 28.9% for the second.

Compared with `Cc1ccc(N2CCN(CCCCN3C(=O)C4CCCN4C3=O)CC2)cc1.Cl` (stereo not shown), `CCOC(=O)N1CCN(C(=O)COc2cccc3c2CCN(Cc2ccccc2F)C3=O)CC1` is lower in “hERG current change (%, negative = inhibition) at 10uM” value: -23.9% for the first, -31.4% for the second.

First: COc1ccc(S(=O)(=O)N2CCOC2CNC(=O)C(=O)NCC(C)C)cc1OC (stereo not shown)
Second: COc1ccccc1N(CC(=O)NC(C)(C)C)C(=O)C1CSC(=O)C1 (stereo not shown)
The “hERG current change (%, negative = inhibition) at 10uM” value of the first is lower: 1.8% for the first, 26.2% for the second.

Going from `N#Cc1ccc(C(=O)Nc2cccc3cccnc23)c(F)c1` to `O=C(CSc1cccc2cccnc12)N/N=C/c1ccc(O)cc1`, the “hERG current change (%, negative = inhibition) at 10uM” value falls from 6.49% to -23.1%.

Compared with `Cc1ccc(/C=C/C(=O)O)cc1S(=O)(=O)NCCCC(=O)O`, `Cc1ccc(CNC(=O)CCCNC(=O)c2ccc(Cl)cc2)n1C` is lower in “hERG current change (%, negative = inhibition) at 10uM” value: 3.13% for the first, 2.05% for the second.

First: COc1ccc(-c2nc(CS(=O)(=O)CC(=O)Nc3cccc(C(C)=O)c3)c(C)o2)cc1
Second: CCC(C)(C)NC(=O)C(c1ccc(OC)cc1)N(C(=O)CCC(=O)Nc1cc(C)on1)c1cc(OC)ccc1OC (stereo not shown)
The “hERG current change (%, negative = inhibition) at 10uM” value of the first is higher: 3.62% for the first, -1.9% for the second.

Going from `CC(C)C(=O)NC(=S)Nc1ccccc1C(=O)NC1CCCCC1` to `Cl.O=[N+]([O-])c1ccccc1OCC(O)CNC1CCCC1` (stereo not shown), the “hERG current change (%, negative = inhibition) at 10uM” value falls from 7.39% to -2.63%.

First: Cc1cccc(N2CN(Cc3ccco3)CNC2=S)c1C
Second: CC(C)(C)c1ccc(/C([O-])=C(/C(=S)NCc2ccco2)[n+]2ccccc2)cc1
The “hERG current change (%, negative = inhibition) at 10uM” value of the first is lower: 5.48% for the first, 6.63% for the second.

First: O=C(CSc1nnc(COc2ccc(Br)cc2)o1)N1CCOCC1
Second: CCOc1ccccc1NC(=O)CSc1ccc(-c2ccco2)nn1
The “hERG current change (%, negative = inhibition) at 10uM” value of the first is lower: -17% for the first, -16.6% for the second.

Going from `CC(Nc1nc(C(F)(F)F)nc2ccccc12)c1cccs1` (stereo not shown) to `O=C(Cn1c(=S)[nH]c2ncccc2c1=O)NCCc1ccccc1`, the “hERG current change (%, negative = inhibition) at 10uM” value falls from 21.4% to 18.9%.

Compared with `COc1ccc(C)cc1S(=O)(=O)NC1CCCCC1C` (stereo not shown), `O=[N+]([O-])c1cc(S(=O)(=O)NC2=NCCCCC2)ccc1Cl` is higher in “hERG current change (%, negative = inhibition) at 10uM” value: 5.07% for the first, 10.5% for the second.

Compared with `Cc1ccc(CNC(=O)c2ccc(Cn3nc(C)cc3C)o2)cc1`, `Cc1ccc(CONC(=O)c2ccc([N+](=O)[O-])cc2)cc1` is higher in “hERG current change (%, negative = inhibition) at 10uM” value: -19.1% for the first, -9.26% for the second.

Compared with `O=c1[nH]c(=S)n(-c2ccccc2F)c(O)c1C=Nc1ccc(N2CCOCC2)cc1`, `CN(C)c1ccc(/C=N/N2CCN(c3ccccn3)CC2)cc1` is higher in “hERG current change (%, negative = inhibition) at 10uM” value: 0.651% for the first, 5.6% for the second.

Compared with `O=C(CSC(=S)N1CCCC1)c1ccccc1`, `O=C(c1ccccc1)c1sc(N2CCCCCC2)nc1-c1ccccc1` is lower in “hERG current change (%, negative = inhibition) at 10uM” value: 4.99% for the first, 0.269% for the second.

First: Cc1cc(N2CCC(C)CC2)c(F)cc1[N+](=O)[O-]
Second: Cc1ccc(C2=NS(=O)(=O)N(C)C(C(=O)Nc3cc(C)n(CC(=O)N4CCC(C)CC4)n3)=C2)cc1
The “hERG current change (%, negative = inhibition) at 10uM” value of the first is higher: -9.64% for the first, -34.8% for the second.

Going from `Cc1cccc(NC(=O)Cn2c(=O)n(CCc3c[nH]c4ccccc34)c(=O)c3cccnc32)c1` to `O=C(Cc1ccccc1)N[C@@H](Cc1ccccc1)c1nc2ccccc2[nH]1`, the “hERG current change (%, negative = inhibition) at 10uM” value falls from 3.29% to 1.13%.

Compared with `COCCNC(=O)COc1ccc(C)c(C)c1`, `COC(=O)[C@H](CCSC)NC(=O)Cn1ccc(N)nc1=O` is lower in “hERG current change (%, negative = inhibition) at 10uM” value: 3.36% for the first, -3.29% for the second.

Going from `CC(C)c1ccc(N(CC(=O)N/N=C/c2ccc(OC3CSC3)cc2)S(=O)(=O)c2ccccc2)cc1` to `O=C(NCCC(=O)N(CCc1ccccc1)Cc1ccccc1)c1ccc(Br)cc1`, the “hERG current change (%, negative = inhibition) at 10uM” value falls from 12.8% to -44.9%.

Compared with `O=C(NNC(=S)Nc1ccc(Br)cc1)c1cccnc1`, `O=C(Nc1ccc(NC(=O)C23CC4CC(CC(C4)C2)C3)cn1)c1ccco1` is lower in “hERG current change (%, negative = inhibition) at 10uM” value: 19.4% for the first, 13.7% for the second.

`CCOC(=O)CSc1nnc(CNC(=O)c2ccc([N+](=O)[O-])cc2)n1C` and `CCOC(=O)CSc1nnc(-c2nnc(SCC(=O)OCC)n2CC)n1CC` are the same in “hERG current change (%, negative = inhibition) at 10uM” value: -16.9% for the first, -16.9% for the second.

First: COC(=O)C[C@H]1c2cc(F)cc(F)c2S(=O)(=O)N1C1CCN(Cc2ccccc2)CC1
Second: CCCCN(C)C(=O)c1nc2ccccn2c1CN1CCN(C/C=C/c2ccccc2)CC1
The “hERG current change (%, negative = inhibition) at 10uM” value of the first is higher: -32% for the first, -83.9% for the second.

Compared with `CC(C)N1CCN(c2ccc(OC[C@H]3CO[C@](Cn4cncn4)(c4ccc(Cl)cc4Cl)O3)cc2)CC1`, `O=C(C[n+]1cc(-c2ccc(Cl)c(Cl)c2)n2c1CCC2)N1c2ccccc2Sc2ccccc21.[Cl-]` is lower in “hERG current change (%, negative = inhibition) at 10uM” value: -34.1% for the first, -37.8% for the second.

Going from `CC(C)(CO)NC(=O)CC1C(=O)NCCN1CC(c1ccccc1)c1ccccc1` (stereo not shown) to `Cc1cccc(NCc2cc(Cl)ccc2O)n1`, the “hERG current change (%, negative = inhibition) at 10uM” value falls from 20.7% to -3.83%.

Going from `Cc1cc(C)nc(-n2nc(C)c3c(C(F)F)cc(C)nc32)n1` to `CCOc1ncnc2c1sc1nc(C)cc(C)c12`, the “hERG current change (%, negative = inhibition) at 10uM” value rises from 15.3% to 16%.

Compared with `Cc1cc(C(=O)NC(C)C)on1`, `Cc1cc(C)c(S(=O)(=O)N/N=C/c2ccc([N+](=O)[O-])o2)c(C)c1` is higher in “hERG current change (%, negative = inhibition) at 10uM” value: 13.6% for the first, 16.8% for the second.

First: Cc1cc2[nH]c(=O)c(=O)[nH]c2cc1S(=O)(=O)Nc1cccc(F)c1
Second: OCCN(Cc1nc(-c2ccc3c(c2)OCO3)no1)Cc1cccs1
The “hERG current change (%, negative = inhibition) at 10uM” value of the first is lower: -8.21% for the first, 7.32% for the second.

In the case of `O=C1C2C3C=CC([C@@H]2C(=O)N1c1nccs1)C31CC1` (stereo partly shown), the “hERG current change (%, negative = inhibition) at 10uM” value was 3.24%.
